In the RNAGym collection of RNA variant scans (doi:10.7554/elife.90254):
Read counts are not given, so values of variants with three or more changes are uncertain.

B1: LINE1-mini (parent)
chain: GGCAGAGCUCAACACAGCGUGGCAAAGUGGCUGUGGCUAGACUGCC

Variants of: B1
Experiment: self-cleavage, relative activity (ratio to wild type); higher = more cleavage; in vitro, sequencing; the parent is a self-cleaving ribozyme
Variant C10G A12U G35A has a self-cleavage of 0.01. Work on G5U C18A G22C G30C U38G U43A yielded a self-cleavage of 0. Variant U9A C13G C45A has a self-cleavage of 0.24. In the case of C3G C10U G36A, the self-cleavage is reported as 0.07. U9G C13A G17U G19U G35A gave a self-cleavage of 0.19. C15A G19A G36A gave a self-cleavage of 0.07. Variant U20C A24G G29C C37G has a self-cleavage of 0. A4G A12G U28C G30U gave a self-cleavage of 0.08. In the case of G5A G7U A25U U38C C42A, the self-cleavage is reported as 0.01. Work on G29A G40U G44C yielded a self-cleavage of 0.07. G5A C10G U34C C46U gave a self-cleavage of 0.02. In the case of U20G G21A G33C, the self-cleavage is reported as 0.04. G22C A26G G33U gave a self-cleavage of 0.22. In the case of C3U U20A C31G, the self-cleavage is reported as 0.03. With C18A G19A G21A the self-cleavage was 0.73. With A4U G40A C42G the self-cleavage was 0.02. With G7U A14U G33A C37A the self-cleavage was 0.01. For C8G A26U U38G, the self-cleavage was 0.3. G5A U28A G29C G33A G44U gave a self-cleavage of 0.06. With C8G C10A C13G C18G the self-cleavage was 0.02. A6G U20C C42U gave a self-cleavage of 0.02. Variant U9G A26G G30A has a self-cleavage of 0.18. Work on C18U C31U C42U yielded a self-cleavage of 0.07. Variant G1A G19U G33A C37G has a self-cleavage of 0.05. C8A G22A U28G gave a self-cleavage of 0.06. For G2U A26G U28A G33A C45U, the self-cleavage was 0.1. With G2A C10A U20A U38G the self-cleavage was 0.01. With C10A G27U C31U the self-cleavage was 0.33. C23A A25U C42U C45U gave a self-cleavage of 0.17. In the case of C3G A14G U20C U34G G36A, the self-cleavage is reported as 0.06. For G7U A16U C46A, the self-cleavage was 0.05. G1U A39C A41G gave a self-cleavage of 0.02. For G19A C31U U32A G33A, the self-cleavage was 0.03. For C3G U9A G17U G19U, the self-cleavage was 0.04. Work on A6C C18U A26U U28A U34A yielded a self-cleavage of 0.03. Work on C3U A24U A26C U43C yielded a self-cleavage of 0.03. In the case of C3U C8A A25C A41U G44A, the self-cleavage is reported as 0.7. In the case of C10A U32A G33U U34C C42G, the self-cleavage is reported as 0.02. In the case of G2U A6U A11C A12U C23U, the self-cleavage is reported as 0.01. G7U C10A C42U G44A showed a self-cleavage of 0.03. Work on C13U U32C G40C yielded a self-cleavage of 0.04. For G2A C3G A6C G19A C23U, the self-cleavage was 0.43. For A4C G22U C23A G36A, the self-cleavage was 0.18. With U32A C37U C45A the self-cleavage was 0.01. Work on C15A C18G U20A G44C yielded a self-cleavage of 0.02. In the case of C23G C37U C46A, the self-cleavage is reported as 0.03. G17C U32G G36C gave a self-cleavage of 0.13. C3U G5C C42U showed a self-cleavage of 0.09. Variant C3U G22U A41C has a self-cleavage of 0.03. C8A U20A G22U G36A gave a self-cleavage of 0.3. For A14G G17C A24C G27C A41U, the self-cleavage was 0.13. Variant G7A U9C C10U A24C has a self-cleavage of 0.03. G2A C3A A14U C42A showed a self-cleavage of 0.67. A6C C10G G40C showed a self-cleavage of 0.01. For A6C C10A A24G G29U C42A, the self-cleavage was 0. C15U G21A G40C showed a self-cleavage of 0.01. Variant G7A G21U C23G U28G G29U has a self-cleavage of 0.04. C3G A16U C18U A25U U34G C37G showed a self-cleavage of 0.07. Work on A11C G19U C31A G36A yielded a self-cleavage of 0. Work on A12U A14U G21C C37G yielded a self-cleavage of 0.02. With G21A C31A A41C the self-cleavage was 0.04. C8G A26C U34C gave a self-cleavage of 0.12. Work on G5A C10U G30U G33A C37A yielded a self-cleavage of 0.03. For G1U A16G G17C G40A U43A, the self-cleavage was 0.07. Work on G2A A25G A26G G35U U43G yielded a self-cleavage of 0.1. C8A U28C U43C gave a self-cleavage of 0.18. Variant G1A A16U G19U G40U C42G has a self-cleavage of 0.28. A4C U9A A14U C15G G22A C45G showed a self-cleavage of 0.16. For G19A A25U U34A C37G, the self-cleavage was 0.06. Variant C23A G29A C46A has a self-cleavage of 1.54. Variant G1A G2U C31G A39U has a self-cleavage of 0.1. In the case of A11G C23A G27C C45A C46U, the self-cleavage is reported as 0.01. Variant G19U A26G G40A U43G C45G has a self-cleavage of 0.03. G19U U20G U34A showed a self-cleavage of 0.03. For G2C A4C G27U U38C, the self-cleavage was 0.12. In the case of C8G A25U A26C, the self-cleavage is reported as 0.11. G27C G29A U34A gave a self-cleavage of 0.07. A4G C23A A41C gave a self-cleavage of 0.04. Variant A14C G21U A25G has a self-cleavage of 0.06. Variant G1A G7A G17A U38A has a self-cleavage of 0.35. In the case of C3G A26U C45U, the self-cleavage is reported as 0.04. C8G U9C G30U showed a self-cleavage of 0.02. Work on C3G A4U C18G G21U C31A yielded a self-cleavage of 0.05. A24C G35A G40A gave a self-cleavage of 0.04.
